Data: the supplement of paper PMC11417369
± gives the standard deviation of the averaged measurements. This is one part of the list.

system: PfAP2-G AP2 domain (GST-tagged); test: gcPBM binding intensity (ln(normalized median fluorescence intensity)); higher = stronger DNA binding
How it was run: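 The binding buffer was 1× PBS containing 1% milk, 0.2 mg/ml BSA, 0.5% salmon testes DNA and 0.03% Triton X-100. In it, GST-tagged P. falciparum DNA-binding domains expressed in E. coli were applied for 1 h to an Agilent 4 × 180k array of primer-extended double-stranded 36-bp intergenic genomic probes plus negative controls. Binding intensity, read with Alexa488 anti-GST antibody and a 488 nm scan, is the highest Masliner-normalised natural-log median intensity across replicate spots of either probe orientation.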

Q: For “TATAGCATAAATATGTGTACATATTTATATGATATT [XGTACX_site6333]”, which “gcPBM binding intensity (ln)” value is on record?
A: Its value is 11.4 ± 0.86.

Q: For “TATATATAATATTATACACACATATATGCATAATAT [CACACA_site54]”, which “gcPBM binding intensity (ln)” value is on record?
A: The value was 9.99 ± 0.17.

Q: For “TATTTATTTATATAAACACACATAAATATAAATATA [CACACA_site6653]”, which “gcPBM binding intensity (ln)” value is on record?
A: Its value is 9.865 ± 0.049.

Q: Which “gcPBM binding intensity (ln)” value does the source give for “AGTTTAGAATTTAATACACACAAAAAAAAAAAATTA [CACACA_site7698]” here?
A: Its value is 10.1 ± 0.35.

Q: Which “gcPBM binding intensity (ln)” value does the source give for “AACGTTCAATTTAAATGTACAAATGTATTTAAATAT [XGTACX_site315]” here?
A: Its value is 10.6 ± 0.35.

Q: “AAATACAAAATTGTTACACACATATTAAGTATGACA [CACACA_site4421]” was tested. Which “gcPBM binding intensity (ln)” value did it give?
A: The value was 10 ± 0.13.

Q: For “TACACAAATATATATATATATATATATATATATATA [XGTACX_negctrl_site305]”, which “gcPBM binding intensity (ln)” value is on record?
A: The value was 10.1 ± 0.91.

Q: With “TTTCTTTTTTCATTTACACACAATAATATAAGAATA [CACACA_site3164]” as the sequence, how does the “gcPBM binding intensity (ln)” value read?
A: The value was 10.1 ± 0.19.

Q: With “CTGGAGGATGAAAAAAGTACAAAAGGAGGAAATGTA [XGTACX_site8846]” as the sequence, how does the “gcPBM binding intensity (ln)” value read?
A: Its value is 11.3 ± 0.9.

Q: Which “gcPBM binding intensity (ln)” value does the source give for “TATTTTAATTATAAATTTAAAAAAAAAAAGAAAAAA [CACACA_negctrl_site1674]” here?
A: The value was 9.88 ± 0.28.

Q: Which “gcPBM binding intensity (ln)” value does the source give for “TGCTTATATATACGTGCACACATATATATAAGATAT [CACACA_site8516]” here?
A: The value was 10.4 ± 0.3.

Q: Which “gcPBM binding intensity (ln)” value does the source give for “ATAAATAATGTTGACACACACAATAATCTTATTATG [CACACA_site3593]” here?
A: The value was 10.3 ± 0.27.

Q: For “CCCCATATAATGAACACACACACTCCTCATAATTAA [CACACA_site628]”, which “gcPBM binding intensity (ln)” value is on record?
A: The value was 10.8 ± 0.42.

Q: How did the “gcPBM binding intensity (ln)” value turn out when “ATGTCCTCAATGTTTACACACTCTTTTATATAAGTT [CACACA_site1460]” was run?
A: The value was 11.4 ± 1.

Q: For “AGCTCATGCAGGTGTACACAAAAAGAAAAAAAATAA [CACACA_site4828]”, which “gcPBM binding intensity (ln)” value is on record?
A: The value was 11.7 ± 0.86.

Q: How did the “gcPBM binding intensity (ln)” value turn out when “AAAACAAATATATTAACACACAAACATATAAACAAA [CACACA_site6052]” was run?
A: The value was 10.11 ± 0.092.

Q: “AACATAAATATATATAGTACATATATATATATTCAA [XGTACX_site7287]” was tested. Which “gcPBM binding intensity (ln)” value did it give?
A: Its value is 10.9 ± 0.63.

Q: For “ATATAGATCAGACACACACACATGTTTTAAAACTAT [CACACA_site6186]”, which “gcPBM binding intensity (ln)” value is on record?
A: The value was 10.2 ± 0.11.

Q: Which “gcPBM binding intensity (ln)” value does the source give for “AAGGAATAATATAAAACACACACATAAATATAAATA [CACACA_site9115]” here?
A: Its value is 9.96.

Q: How did the “gcPBM binding intensity (ln)” value turn out when “CGAAATATTATGTACGCACACACATTTTTAATATAT [CACACA_site3852]” was run?
A: The value was 11.5 ± 0.76.

Q: Which “gcPBM binding intensity (ln)” value does the source give for “TATTAATTTATATCAACACACAAAATCAATATACTT [CACACA_site1757]” here?
A: The value was 9.94 ± 0.16.

Q: How did the “gcPBM binding intensity (ln)” value turn out when “GTGAAATGGAAAAAAAGTACAGATTACATAAGTATT [XGTACX_site6355]” was run?
A: The value was 11.5 ± 1.

Q: With “AATATATGGTATAATTGTACAAAAAAAAAAAAAAAA [XGTACX_site1476]” as the sequence, how does the “gcPBM binding intensity (ln)” value read?
A: Its value is 10.8 ± 0.77.

Q: With “TCTTTAATGAACAAATGTACAAGAACAATACCCGCA [XGTACX_site2047]” as the sequence, how does the “gcPBM binding intensity (ln)” value read?
A: Its value is 11.1 ± 0.42.

Q: For “CTTTAACCTTTTTATTGTACTTTTAATATTTTAAAA [XGTACX_site4457]”, which “gcPBM binding intensity (ln)” value is on record?
A: The value was 11.4 ± 0.86.

Q: How did the “gcPBM binding intensity (ln)” value turn out when “TTAATATATTTAAATATATATAAAATATATAATATG [CACACA_negctrl_site880]” was run?
A: Its value is 9.695 ± 0.078.

Q: With “AATAAAATAAGAAGCACACAAATATTATATATAAAA [CACACA_site3980]” as the sequence, how does the “gcPBM binding intensity (ln)” value read?
A: The value was 9.93 ± 0.042.

Q: Which “gcPBM binding intensity (ln)” value does the source give for “TTTTAAATAATACATACATGCATATATACACATATA [TGCATGCA_site8]” here?
A: Its value is 9.92 ± 0.042.

Q: How did the “gcPBM binding intensity (ln)” value turn out when “TGAAACCATAAAGAATGTACACAGCGGTATAAGTTA [XGTACX_site674]” was run?
A: Its value is 11.1 ± 0.59.

Q: “TTTTGGAATTTTAGCTGTACTTTTCCTATTTTGTAT [XGTACX_site7679]” was tested. Which “gcPBM binding intensity (ln)” value did it give?
A: The value was 11.6 ± 0.94.

Q: Which “gcPBM binding intensity (ln)” value does the source give for “TTCTTTTCTTCTACATGTACAAATATTATATATATA [XGTACX_site2996]” here?
A: Its value is 10.9 ± 0.65.

Q: How did the “gcPBM binding intensity (ln)” value turn out when “TTAGGTGTATATAATTGTACATTTTGGAAATTATAC [XGTACX_site5492]” was run?
A: The value was 10.8 ± 0.5.

Q: How did the “gcPBM binding intensity (ln)” value turn out when “ATCTTTCATCTACCAAGTACAAATTACTTTTTTTTT [XGTACX_site7001]” was run?
A: Its value is 10.8 ± 0.31.

Q: “TATATAACTGTCTTCACACACACATATAAATAAATA [CACACA_site7317]” was tested. Which “gcPBM binding intensity (ln)” value did it give?
A: The value was 10.1 ± 0.22.

Q: How did the “gcPBM binding intensity (ln)” value turn out when “TATTTCACAACTTGTCGTACATTAATTGTATTATTT [XGTACX_site997]” was run?
A: The value was 11.4 ± 0.86.

Q: With “ATTATTATTAATAGTACACACTATGGCATTTCAATA [CACACA_site5388]” as the sequence, how does the “gcPBM binding intensity (ln)” value read?
A: Its value is 11.2 ± 0.8.

Q: Which “gcPBM binding intensity (ln)” value does the source give for “AGCTCGGAAAAATTAGCATGCAAAAAAAAAAAAAAA [TGCATGCA_site658]” here?
A: Its value is 9.65 ± 0.28.

Q: With “TCTTATTTAAAAATAGCACACATTATGTATATATAT [CACACA_site2822]” as the sequence, how does the “gcPBM binding intensity (ln)” value read?
A: Its value is 10 ± 0.11.

Q: How did the “gcPBM binding intensity (ln)” value turn out when “TATTTATATTTATATACACACTATATAACTCAAACA [CACACA_site6611]” was run?
A: Its value is 9.93 ± 0.11.

Q: For “AATTGTTCGATATATGCACACAGTTTTGTTATTTTT [CACACA_site1615]”, which “gcPBM binding intensity (ln)” value is on record?
A: Its value is 10.05 ± 0.099.

Q: How did the “gcPBM binding intensity (ln)” value turn out when “TTTTTTAAAATATATATAATGAATTTTTTTTTTTTT [CACACA_negctrl_site1577]” was run?
A: Its value is 9.45 ± 0.22.

Q: How did the “gcPBM binding intensity (ln)” value turn out when “AAAGAAAAAAAAAAAAGTACATAAATATAAAAAGAA [XGTACX_site6753]” was run?
A: The value was 11.5 ± 0.89.

Q: “ATATATATATATATATGTACATATTATTAATAATAT [XGTACX_site6667]” was tested. Which “gcPBM binding intensity (ln)” value did it give?
A: Its value is 11.2 ± 0.74.

Q: Which “gcPBM binding intensity (ln)” value does the source give for “CTAGCAAATACATACACACACACACGGATACCTATA [CACACA_site7609]” here?
A: The value was 10.2 ± 0.16.

Q: For “TATATAACTTTATTTTTCTTTACTTATTTTATTTTA [GTGCAC_negctrl_site66]”, which “gcPBM binding intensity (ln)” value is on record?
A: The value was 9.64 ± 0.3.
